Among the data in publication PMC6212790 are binding signal values, retold here.

Some of the results follow. At the low end of the ranking the order means little.

For this experiment, the target named is T1, GST-Rok-C97-191 (UniProt O34857).
T1 sequence: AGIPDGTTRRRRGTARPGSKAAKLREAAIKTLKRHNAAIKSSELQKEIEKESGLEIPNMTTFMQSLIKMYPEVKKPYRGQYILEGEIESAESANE
Description: protein binding microarray.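 Note: rank score from −0.5 (least bound) to 0.5 (best bound).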 The following applies: Rok is a gene silencer of Bacillus subtilis; high values mean tight binding; most listed sequences are background and not binding sites; double strand, one strand shown.
As for AAGTGCCC, the binding signal is -0.158 E-score.
ACGGTGGA showed a binding signal of -0.0421 E-score.
CACTGTGC came in with a binding signal of -0.0426 E-score.
The result for GCGTCATA reads -0.12 E-score; that for AGGCCTAA, -0.0119 E-score; that for CGCAGACG, -0.227 E-score.
For AGTTACCG the value was 0.194 E-score.
On to AAAGCCGA, for which the binding signal was -0.00482 E-score.
Turning to CTCTTTGC, the binding signal was -0.217 E-score.
For CTGTAAGC the value was -0.175 E-score; for CGACTCTA, -0.0898 E-score.
In turn, GGGATTAC showed a binding signal of -0.0922 E-score.
Take ATTTTATG: the binding signal turned out to be 0.229 E-score.
For GAGCGCCC the value was -0.414 E-score; for ATTAGGCA, -0.0234 E-score; for CTATTTTA, 0.302 E-score.
In turn, CTTTCAAC showed a binding signal of -0.0594 E-score.
Sequence GCTAGTAA yielded a binding signal of 0.286 E-score.
For AAATCATC the value was -0.112 E-score; for TATACACA, 0.0896 E-score.
As to TACTAGGA, the binding signal is 0.115 E-score.
For CATCATCC the value was -0.118 E-score.
For CGGTATGA the value was 0.0776 E-score; for ACGGGGAA, 0.0307 E-score.
For CGTGTCAG the value was -0.279 E-score; for CCGGCATA, -0.00274 E-score.
In the case of AATTCTGT, the binding signal was determined as 0.0907 E-score.
The result for CCGCTTCG reads -0.312 E-score; that for TGTTGCAA, 0.227 E-score; that for TAATCATA, 0.161 E-score.
For the sequence TCTCGCAA, the binding signal is -0.00541 E-score.
In turn, CCCAGCTC returned a binding signal of -0.258 E-score.
In turn, GGCGGGTA registered a binding signal of -0.246 E-score.
The result for ATGGGGGA reads -0.256 E-score; that for GATTGGCC, -0.179 E-score; that for CGGGCCGC, -0.334 E-score.
ATACACTA: the binding signal stood at 0.197 E-score.
The result for AACGACGA reads -0.121 E-score.
For ATACGCGG the value was -0.163 E-score; for AGGCTACT, -0.109 E-score.
ATTCTCGG yielded a binding signal of 0.0178 E-score.
As for CGCAAGTA, the binding signal worked out at 0.0722 E-score.
For GTGGGAAC the value was -0.153 E-score; for GCATCACA, 0.0845 E-score; for TCGTCTCA, -0.21 E-score.
CGTCTGAG registered a binding signal of -0.223 E-score.
In turn, CGAGGACG had a binding signal of -0.358 E-score.
The sequence AGCAAGTA registered a binding signal of 0.167 E-score.
For CTATTGCC, the binding signal was 0.0125 E-score.
For GCGTGAAA the value was -0.111 E-score; for TAGTATAA, 0.413 E-score.
For GTACAGGA the value was -0.12 E-score; for GGCGCGGA, -0.261 E-score; for GCTTATGA, -0.145 E-score.
Turning to AGAATGTG, the binding signal was 0.00607 E-score.
The result for AGGATACA reads -0.014 E-score; that for AAACTAAT, 0.36 E-score.
For ATTGGGTC the value was -0.0338 E-score; for AACTTAAA, -0.0182 E-score.
In the case of ACGTAAAT, the binding signal was found to be 0.228 E-score.
The result for CGCCTACA reads 0.0604 E-score; that for CCGGGAGC, -0.267 E-score; that for AAGGTCGA, 0.0853 E-score.
For CGATTATC the value was 0.0925 E-score.
For AGCGCCAC the value was -0.135 E-score; for CAGTCGGC, -0.213 E-score; for GCGTTGAC, -0.0864 E-score.
Sequence CACTGAAC displayed a binding signal of 0.0486 E-score.
AAAATCAC gave a binding signal of 0.0515 E-score.
For CCATCTTA the value was 0.037 E-score.
For TACACGCA the value was 0.182 E-score; for CACGATAA, 0.0227 E-score; for AACCGCTC, -0.214 E-score.
Consider GAAAAGGC, for which the binding signal is -0.139 E-score.
Sequence GGCACCAC returned a binding signal of -0.0641 E-score.
For GTCTGAAA the value was 0.11 E-score.
The sequence ACCTCAGT yielded a binding signal of -0.0743 E-score.
ACGACGGC came in with a binding signal of -0.214 E-score.
For CATTCGAC the value was -0.047 E-score; for ACGGATTA, -0.0723 E-score.
ACATGTTC had a binding signal of 0.0749 E-score.
For CACCACAG the value was -0.114 E-score.
For the sequence TCTTTTAA, the binding signal came to 0.103 E-score.
The result for CCGGGTGA reads -0.0695 E-score; that for AAAACTCT, 0.152 E-score; that for ATGGCAGG, -0.221 E-score.
CTAGTGAC returned a binding signal of 0.101 E-score.
As for AAGGCGAT, the binding signal is -0.0931 E-score.
For AGCGGGAC, the binding signal was -0.306 E-score.
For GACCGTAC the value was -0.00807 E-score; for AGACGGCC, 0.00816 E-score.
Turning to GCAATAAA, the binding signal worked out at 0.0872 E-score.
The result for AATCCAAT reads 0.0647 E-score; that for GCACTCAA, -0.0906 E-score.
CTTTTCTA had a binding signal of 0.303 E-score.
For CATTCTTA the value was 0.0205 E-score; for AGGGGACT, -0.157 E-score; for ACCAGTTC, -0.0888 E-score.
CGTGCACA: the binding signal stood at 0.056 E-score.
In the case of GCCAAGCC, the binding signal is -0.0184 E-score.
The result for AGGTGTAC reads 0.03 E-score; that for AGGTCTGA, -0.158 E-score.
For AACATCGG the value was -0.133 E-score.
The result for ATCTCCTA reads 0.0362 E-score; that for AAATGCAT, 0.252 E-score.
CGACTGCA yielded a binding signal of -0.131 E-score.
The sequence GAACTAGA showed a binding signal of 0.335 E-score.
GTCTCGTA returned a binding signal of 0.00987 E-score.
CTCCTTGA registered a binding signal of -0.109 E-score.
Turning to CCCAGCTA, the binding signal was -0.0297 E-score.
The result for ATGTAGAG reads 0.246 E-score.
The sequence CACAAATA gave a binding signal of 0.243 E-score.
For ACGTCATC the value was -0.0226 E-score; for GATATTTA, 0.328 E-score; for ATGTCATG, -0.00603 E-score.
The result for CGTGGTAC reads -0.0859 E-score; that for AGTAAAAA, 0.341 E-score; that for GCACATCC, -0.127 E-score.
For the sequence AAACCCGG, the binding signal is 0.00206 E-score.
CTGTCAAA showed a binding signal of -0.122 E-score.
In turn, ACCACATC gave a binding signal of -0.0738 E-score.
The result for CGCCCTAG reads -0.107 E-score; that for ACTCTCCT, -0.0534 E-score; that for ATGGCGAA, 0.00598 E-score.
The sequence TATTTAGA registered a binding signal of 0.0799 E-score.
Turning to ATAGAATC, the binding signal stood at 0.274 E-score.
For GCACCCTA the value was 0.17 E-score; for AGAGAATA, 0.131 E-score; for GAGATGAC, -0.226 E-score.
For CCACTACG the value was 0.0791 E-score.
The result for CGACCTAC reads -0.0743 E-score.
ACACGTCT showed a binding signal of -0.0751 E-score.
The result for ATGGACAA reads -0.13 E-score.
For ATCTTTTG the value was -0.131 E-score.
Sequence ACCTGACT gave a binding signal of -0.186 E-score.
The result for ATTCGTCA reads 0.0355 E-score; that for GATGCGCC, -0.213 E-score.
The result for AAAGACCC reads -0.00616 E-score.
CCTAGTCA came in with a binding signal of -0.0304 E-score.
For ATTTCGCA the value was 0.195 E-score.
On to ATCTTACG, for which the binding signal was 0.129 E-score.
The result for CATTCGAG reads -0.0543 E-score; that for CTATCAAG, 0.0537 E-score.
In the case of TATTGCCA, the binding signal turned out to be 0.149 E-score.
Take CATGTCAG: the binding signal is 0.0755 E-score.
Sequence CAGTATGG had a binding signal of -0.0654 E-score.
CAAAAAAG registered a binding signal of -0.0716 E-score.
For the sequence CGAAATTA, the binding signal turned out to be 0.31 E-score.
For CCGACCTC the value was -0.237 E-score; for ATAACTTG, 0.298 E-score.
On to CCGGTCTC, for which the binding signal is -0.245 E-score.
As to AAGAATAT, the binding signal amounted to 0.135 E-score.
For AAATCCAT the value was 0.189 E-score; for GGTCGCAA, 0.0362 E-score; for CGAAGTGC, -0.165 E-score.
The result for CGTAACTC reads 0.0679 E-score; that for CCTGCAAA, -0.143 E-score; that for AGAATACG, -0.0125 E-score.
For GCGTTGCC the value was -0.25 E-score; for GATTGCGA, 0.0546 E-score; for TTCGCCAA, 0.106 E-score.
Sequence AATAATGT showed a binding signal of 0.203 E-score.
The result for CTAAAATC reads 0.326 E-score.
ACTATAAC registered a binding signal of 0.211 E-score.
For CGGGGGAG the value was -0.241 E-score.
For CATAGCAC the value was -0.0051 E-score; for AGTGGGCA, -0.0845 E-score; for CAAAGCCA, -0.295 E-score.
For GCTGAACA the value was -0.137 E-score; for CCATGGTC, -0.18 E-score.
Regarding GATTTGAC, the binding signal is -0.0772 E-score.
The result for TATTACCA reads 0.272 E-score.
